# Over roughly 33,000 sequences, “E-score (-0.5 to 0.5)” has its median near -0.017; the highest 2% begin near 0.3. The list shows a part of the results.
# Molecular target: T1, Sut1 (UniProt P53032)
# T1 sequence: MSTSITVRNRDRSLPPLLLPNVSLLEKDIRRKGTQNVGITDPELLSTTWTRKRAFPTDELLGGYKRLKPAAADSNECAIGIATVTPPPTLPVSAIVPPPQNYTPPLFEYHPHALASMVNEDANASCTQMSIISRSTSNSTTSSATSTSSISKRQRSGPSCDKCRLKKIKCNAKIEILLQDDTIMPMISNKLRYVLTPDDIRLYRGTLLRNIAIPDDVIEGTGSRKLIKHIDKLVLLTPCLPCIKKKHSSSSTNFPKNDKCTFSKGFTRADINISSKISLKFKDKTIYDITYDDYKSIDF
# Assay: PBM E-score (8-mer binding enrichment) (E-score (-0.5 to 0.5)); higher = stronger / more preferred TF binding; most listed sequences are background and not binding sites
# Conditions: protein concentration: 200 nM; construct: GST-full length
# Procedure, shortened: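 Universal all-10-mer Agilent arrays, double-stranded by primer extension on fresh or once-stripped slides, were probed with about 100-200 nM GST-tagged yeast transcription factors made by PURExpress. Fluorescent anti-GST detected bound protein, and masliner normalised the scans. E-scores from the Universal PBM Analysis Suite were given to each ungapped eight-base word pooled with its reverse complement.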
row,Sequence,PBM E-score
1,GAAACTCA,0.0707
2,GCAATCCA,0.0268
3,ACCAAATG,-0.0167
4,CGAAACAA,0.159
5,ACCCTAGT,-0.199
6,GTCATGAC,0.0478
7,CGACTGCG,0.0732
8,GGGGTGCA,-0.131
9,ACCATATA,0.263
10,AATCTCGA,0.0731
11,CGTGGCCC,-0.256
12,CGGATAAG,0.0887
13,GCTCCAGC,-0.0983
14,GGGAGCAA,-0.147
15,AGTCGTAA,0.107
16,GCCACGGC,-0.182
17,GAAGCTCC,0.35
18,CATACAGC,-0.216
19,CCCAAGCA,-0.165
20,GGGTACAC,-0.157
21,GCGCGTGA,-0.0155
22,AAAACCAC,0.0541
23,GACGCTTA,-0.155
24,ACACTAGG,0.018
25,CTCCATAC,0.0459

row,Sequence,PBM E-score
1,GGCACGGA,0.175
2,CTCTTGTA,0.0891
3,CCTCTCTA,-0.295
4,GGATAATA,0.159
5,CTAACATA,0.211
6,GTCGCAAC,-0.112
7,AAGGTGAC,-0.141
8,AAAGATTC,0.119
9,CGCGCCAG,-0.0599
10,GGCGGGAC,-0.211
11,ACCTCGTC,0.0103
12,GTCCTTTA,-0.00718
13,ACGTAGAT,-0.0336
14,AGGACCAC,-0.0917
15,GATTCCAC,0.15
16,GGCTTCGA,-0.0873
17,CACAAAGA,-0.00788
18,GGTGGAAA,0.0136
19,GTGCCTCA,-0.178
20,ACTGTCGC,-0.0793
21,AAGGACAC,0.0727
22,TCTGATAA,-0.0508
23,TATCCAAA,0.209
24,GCTAAAGA,0.114
25,GGTAAAAA,0.111

row,Sequence,PBM E-score
1,CACGCGGC,-0.147
2,CTAGAAAA,0.0566
3,CTCTGTTC,-0.156
4,CGATGGGC,-0.193
5,CAATACTC,0.187
6,ATGAGCTC,-0.0175
7,GGGCTCGA,-0.318
8,AAAATTGG,0.0883
9,CCGTTGTC,0.0994
10,ACGGCTAT,-0.0169
11,CACGGCGC,-0.0542
12,CTGGTTGC,0.229
13,GGTGGTTA,-0.102
14,CAGTAGAC,-0.0193
15,GAATTAAC,0.182
16,AACACAGA,-0.175
17,CCCCCGAA,-0.0826
18,GAATCTAA,0.127
19,AGCCACTG,-0.0195
20,CATCCTAC,-0.161
21,AAAGGAAT,-0.00094
22,GCGATTTA,0.00681
23,GATAGGGC,-0.146
24,AGCTGGCC,-0.0824
25,GGTTGCAC,-0.0582

row,Sequence,PBM E-score
1,GAGCCTCA,-0.198
2,GCCGGAAA,0.244
3,CCCGTATC,-0.174
4,CTAAGGAG,-0.219
5,TAGTCACA,-0.0374
6,ATCCCCAA,-0.0846
7,ATAGAAAT,0.289
8,CGACTATC,0.0097
9,CCCTCCGA,0.0492
10,AGTGATTA,0.0842
11,AATCTGAC,0.0152
12,CATACTTA,-0.00679
13,GGCTCTCA,-0.111
14,TAGGGCGA,-0.179
15,CAAGTCTA,0.0167
16,CCTGGTCC,-0.0487
17,TAATGAGA,0.206
18,CCTATTCG,-0.0612
19,CGCGCAGC,-0.097
20,CTCTGATA,-0.0121
21,AAGATCAG,-0.0975
22,ACTCGGTA,-0.0445
23,TAGCCCTA,-0.175
24,CTGTGTCC,0.0176
25,CTTTTCTC,0.107

row,Sequence,PBM E-score
1,ACTCTAGC,-0.0418
2,AAAGTCGA,-0.0252
3,GAGCACGC,-0.0176
4,ACCGTCTA,-0.116
5,AATCATAC,0.204
6,AACACGCT,-0.0943
7,GTCCCGAA,0.00289
8,AAGACACA,-0.13
9,ACCGGGTA,-0.025
10,AAATATCT,0.179
11,CAGCATGA,0.0381
12,ATATCAAC,0.0351
13,GCTCACAA,0.0416
14,ATATATAT,0.302
15,CTAGGCTC,-0.149
16,ACCGCGTG,-0.15
17,CGTCCAAC,-0.0705
18,ACGTCTCT,-0.0559
19,CCATCATC,-0.0983
20,AACGCTAG,0.0323
21,CGATGTCA,-0.0509
22,TCCAGGCA,-0.0581
23,AGAACGAG,0.071
24,CTTTTAGA,0.0706
25,GTGCCCAC,-0.258

row,Sequence,PBM E-score
1,CCAAGTAA,-0.0496
2,CCCCCGCC,-0.266
3,GACACAGC,-0.0804
4,GACGAGTA,0.0781
5,AGAGTTAT,0.0605
6,CTGGCGCA,-0.339
7,GCTTTGCA,-0.22
8,AACCTTTA,0.0531
9,CCGTCCTC,-0.0982
10,AAACCGGA,0.309
11,CTTACGGC,-0.0526
12,AACACCCC,-0.0746
13,CACCCGCC,-0.06
14,ACCTCAAA,0.078
15,TAGGAGGA,-0.156
16,CCCTGGCA,-0.359
17,GAAAAACA,0.125
18,CGGGAAGC,-0.119
19,GGAACTAC,-0.062
20,AGGGTGGA,-0.117
21,ACTTACGA,0.202
22,CAGTGTAG,-0.0327
23,ATAACCTC,-0.0198
24,ATAGTATG,0.277
25,CGCTAAGA,-0.106

row,Sequence,PBM E-score
1,ATGCATAG,0.0432
2,CCGTGTAG,-0.104
3,GCGTAAGC,-0.083
4,CAGCTATA,0.0551
5,CGAATCAA,0.242
6,CGCGTGCA,-0.208
7,CTCAGTCC,-0.0236
8,CAACCATA,0.172
9,GAATTCCC,-0.116
10,ATACTAAG,0.142
11,CCTTGCCA,-0.0514
12,ATGCTGCC,-0.274
13,CCGAGAAA,0.339
14,ACTAGCAG,0.0346
15,CTGTAGTC,-0.152
16,AGCTCTAC,-0.325
17,ATAAGTTA,0.208
18,GGTAATAC,0.18
19,CCAGCAGC,-0.262
20,AGGGTCAA,0.0235
21,ACCGATAA,0.18
22,GTCGTAAC,-0.00388
